Hit rate of the full screen: of about 310,000 compounds, about 14,000 (4.5%) showed an effect of 50% or more. Effects have a minus sign here. The list shows a part of the results.
Target: human ether-à-go-go-related gene (hERG) potassium channel (human, UniProt Q12809)
Assay: primary screen, population patch clamp on CHO cells stably expressing hERG
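Note: peak tail current of the secondary pulse compared with the same well before compound.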

Sequence of human ether-à-go-go-related gene (hERG) potassium channel (Q12809 whole entry, looked up): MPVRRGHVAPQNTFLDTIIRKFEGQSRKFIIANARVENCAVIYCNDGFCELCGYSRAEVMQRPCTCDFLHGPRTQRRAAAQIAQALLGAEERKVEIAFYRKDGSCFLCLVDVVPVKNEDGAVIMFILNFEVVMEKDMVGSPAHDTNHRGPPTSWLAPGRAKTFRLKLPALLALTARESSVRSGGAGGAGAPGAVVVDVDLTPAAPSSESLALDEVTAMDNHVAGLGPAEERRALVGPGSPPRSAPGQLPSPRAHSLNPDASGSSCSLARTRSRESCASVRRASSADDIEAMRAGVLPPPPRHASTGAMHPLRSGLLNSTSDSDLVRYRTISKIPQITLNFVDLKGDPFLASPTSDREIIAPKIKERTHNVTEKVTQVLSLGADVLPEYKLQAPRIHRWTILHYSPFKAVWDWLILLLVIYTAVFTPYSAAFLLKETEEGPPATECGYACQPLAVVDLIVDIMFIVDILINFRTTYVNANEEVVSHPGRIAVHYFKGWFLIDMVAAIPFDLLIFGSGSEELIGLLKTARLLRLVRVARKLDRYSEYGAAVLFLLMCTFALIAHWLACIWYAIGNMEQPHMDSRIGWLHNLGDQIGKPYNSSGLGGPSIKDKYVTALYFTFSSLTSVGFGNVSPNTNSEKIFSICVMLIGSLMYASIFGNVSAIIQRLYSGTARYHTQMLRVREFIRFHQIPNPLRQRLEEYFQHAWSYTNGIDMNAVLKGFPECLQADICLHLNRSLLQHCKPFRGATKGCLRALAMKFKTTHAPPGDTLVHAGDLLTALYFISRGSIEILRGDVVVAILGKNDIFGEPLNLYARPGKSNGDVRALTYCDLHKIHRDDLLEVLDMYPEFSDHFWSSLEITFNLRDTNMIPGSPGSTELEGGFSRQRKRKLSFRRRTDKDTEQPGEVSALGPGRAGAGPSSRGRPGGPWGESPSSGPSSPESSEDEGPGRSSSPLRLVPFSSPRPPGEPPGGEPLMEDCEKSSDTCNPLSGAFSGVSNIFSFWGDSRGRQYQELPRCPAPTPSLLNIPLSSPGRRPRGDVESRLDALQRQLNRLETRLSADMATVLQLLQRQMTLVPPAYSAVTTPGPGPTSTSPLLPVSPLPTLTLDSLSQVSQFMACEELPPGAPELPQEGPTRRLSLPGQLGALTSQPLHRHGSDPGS

Structure (SMILES)	hERG current change (%, negative = inhibition) at 10uM [%]
Cc1ccc(SCCNC(=O)c2cccc([N+](=O)[O-])c2C)cc1	-27.6
CCOc1ccccc1-n1c(SCC(N)=O)nnc1-c1ccc(O)cc1	-4.86
COc1ccc(CCNC(=O)CCn2cccc2)cc1OC	1.6
Cc1onc(-c2c(F)cccc2Cl)c1C(=O)Nc1nccs1	-5.56
S=c1[nH]nc(-c2ccco2)n1/N=C/c1cccs1	35.2
COc1ccc(OC)c(S(=O)(=O)N2CCCC2C(=O)N2CCc3ccccc3C2)c1 (stereo not drawn)	-42.4
O=C(NC(=S)N1CCOCC1)c1ccccc1Cl	12.7
CCn1c(SCC(=O)Nc2ccccc2N2CCCCC2)nc2c1c(=O)n(C)c(=O)n2C	-42.8
CCCOc1ccc(Cc2c(O)nc(SC)[nH]c2=O)cc1C	1.85
CCCCn1c(N)c(N(CCOC)C(=O)COC(=O)COc2cc(C)c(Cl)cc2C(C)C)c(=O)[nH]c1=O	-44.1
Cc1ccc(N(C(C)C(=O)O)S(=O)(=O)c2cccnc2)cc1 (stereo not drawn)	17
CCOC(=O)c1c(-c2ccc(C)cc2)csc1NC(=O)CCN1CCOCC1	-42.1
CC(OC(=O)CCc1nc2ccccc2c(=O)[nH]1)C(=O)Nc1ccc2c(c1)OCO2 (stereo not drawn)	10.9
OC(CN1CCOCC1)C12CC3CC(CC(C3)C1)C2 (stereo not drawn)	2.88
O=C(NCc1cccnc1)c1nc(-c2cccs2)no1	-0.749
CC(C)n1cnc2c(Nc3ccc(C(=O)O)cc3)nc(Cl)nc21	12.3
O=C(Nc1ccc2c(c1)nc1n2CCOC1)c1ccccc1	-2.73
Nc1nc(SCC(=O)Nc2cc(S(=O)(=O)N3CCOCC3)ccc2Cl)n[nH]1	12.3
O=C(CCN1C(=O)c2ccccc2C1=O)N1CCN(C(=O)c2ccccc2)CC1	0.00878

Structure (SMILES)	hERG current change (%, negative = inhibition) at 10uM [%]
CCN1CCN(C(C)C(=O)NC2CCCCC2)CC1.O=C(O)C(=O)O (stereo not drawn)	7.26
CC(=O)c1ccc(NC(=O)Nc2ccc3c(c2)N(C)C(=O)CS3)cc1	4.44
C/C(=N\NC(=O)CSc1nc(C)cc(C)n1)c1cccs1	-39.5
COc1ccc(-c2csc(NC(=S)NC(=O)c3cc4ccccc4o3)n2)cc1Br	19.9
CCOc1ccc2[nH]c(=O)c(CN(Cc3ccc(F)cc3)C(=O)N3CCCC3)cc2c1	11.1
CC[C@@H]1C(=O)OC[C@@H]1CC1=CN=C[NH+]1C.O=[N+]([O-])[O-]	15.7
COc1ccc(OCC(=O)Nc2ccc(N3CCN(C(=O)c4ccccc4C)CC3)cc2)cc1	6.32
CN(C)/C=N/c1[nH]ncc1C#N	16
O=[N+]([O-])/C(C(Cl)=C(Cl)Cl)=C(\Sc1ccccc1)N1CCCCC1	-0.233
COc1ccc2c(c1)C1NC(=S)NC(C)(O2)C1C(=O)Nc1ccc(C)cc1C (stereo not drawn)	1.01
COc1cccc(CN(C)C(=O)CSC(C)C(=O)Nc2cc(C)on2)c1OC (stereo not drawn)	5.86
CN1CCN(c2ccccc2NC(=O)c2ccc(OCc3ccccc3)cc2)CC1	-41.9
COc1ccc(C(=O)NCC(=O)Nc2ccc(-c3ccccc3)cc2)cc1	23
CC(C)NC(=O)C1CCN(C2CCN(C(=O)C3=CCCC3)CC2)CC1	2.17
Cc1cccn2cc(-c3ccc(F)cc3)cc12	7.17
CCN(CC(=O)Nc1c(F)cccc1F)C(=O)CN(C)S(=O)(=O)c1ccc(F)cc1	-7.19
CN(C)CCN(C(=O)C1=COCCO1)c1nc2ccc(F)cc2s1.Cl	-73
CCCCCCC(=O)N(O)C1CC(=O)N(c2ccc(F)cc2)C1=O (stereo not drawn)	18.1
CN(C)c1cc(N)c2c(n1)CCC2.O=C(O)c1cncc(O)c1	-10.8

Structure (SMILES)	hERG current change (%, negative = inhibition) at 10uM [%]
COc1cccc(C(=O)Nc2nnc(SCC(=O)Nc3ccc(NC(C)=O)cc3)s2)c1	-36.6
COc1ccc(-n2nnnc2SCC(=O)NC(=O)Nc2ccc3c(c2)OCCO3)cc1	3.64
Cc1occc1-c1nnc(SCC(=O)NC2CC2)n1C	2.21
CCC(Oc1ccccc1)C(=O)Nc1ccsc1C(=O)OC (stereo not drawn)	-0.992
Cc1ccc(C(=O)OCC(=O)Nc2cc(C(C)(C)C)nn2-c2ccccc2)c(O)c1	-8.07
Cc1nnc2n1NC(c1ccc(Cl)cc1)C(C(=O)N1CCC(C)CC1)S2 (stereo not drawn)	8.16
CN(Cc1c(C(=O)N/N=C/c2cccc(O)c2)nnn1-c1nonc1N)C1CCCCC1	-2.25
O=C(N/N=C/C1CC=CCC1)c1ccccc1O (stereo not drawn)	0.891
CC(C)CCN(C(=O)CNC(=O)c1cccs1)C(C(=O)NC1CCCCC1)c1cccnc1 (stereo not drawn)	-36.4
COC(=O)C(NC(=O)c1ccccc1)=C1CCCCC1	15
COCc1ccc(CN2CCCC(C(=O)Nc3ccccc3-c3ccc(OC)cc3)C2)o1 (stereo not drawn)	-21.3
COc1ccc(NC(=O)CNC(=O)Cn2cnc3sc(C)c(C)c3c2=O)cc1OC	4.39
C=CCn1c(O)c(N=NC(=O)CNC(=O)c2ccco2)c2ccccc21	-4.55
O=C(O)CC12CC3CC(C1)CC(n1ncc(NCC4CCCO4)c(Cl)c1=O)(C3)C2 (stereo not drawn)	4.51
O=C1CCC(C(=O)OCc2ccccc2)N1 (stereo not drawn)	10.5
O=C1COc2ccc(C(=O)COC(=O)CCc3ccc(S(=O)(=O)N4CCOCC4)cc3)cc2N1	-33.2
CCOC(=O)c1ccc(N2C(=O)C(O)=C(C(C)=O)C2c2ccccc2)cc1 (stereo not drawn)	12
CCCCC(CCCCl)C(=O)Nc1ccccc1 (stereo not drawn)	19
O=C(CN1CCN(c2ccccc2O)CC1)NNC(=O)c1ccc(Cl)cc1	-18.9

Reference: article PMC4336329 (PLoS ONE, 2015)
